# Data as given in PubChem BioAssay AID463173 (ICCB-Longwood Screening Facility, Harvard Medical School, 2010).
# Among all 52,000 compounds or so, about 1,700 (3.3%) were called active. No stated cut-off is given here; in the data, active means survival mostly below about 52% (no sharp cut-off); inactive means mostly above about 56%. This is one part of the list.
# System: Wild type
# Experiment: S. aureus survival, RN4220 and DeltatarO strains – OD600, teichoic acid synthesis inhibitors, primary screen (AID 463173)
# Details: S. aureus RN4220 wild type/DeltatarO growth, OD600, 18 h, active compounds read low, screened at 18.75 µg/mL (by protocol)
row,SMILES,survival
1,O=C(Nc1ccccc1Cl)c1sc2cccc(Cl)c2c1Cl,inactive: 72%
2,COc1ccc(NC(=O)c2oc3ccccc3c2NC(=O)COc2ccc(C(C)C)cc2)c(OC)c1,inactive: 89%
3,CN1C(C(=O)Nc2ccc(OC(F)(F)F)cc2)=CC(c2cccs2)=NS1(=O)=O,inactive: 38%
4,CCSc1nc2n(n1)C(c1ccc(C(=O)O)cc1)C(C(=O)Nc1ccccc1C)=C(C)N2 (stereo not given),inactive: 77%
5,Nc1nc(=S)[nH]c2c1C1(CCCC1)Cc1ccccc1-2,inactive: 126%
6,Cc1ccc(N(CC(=O)Nc2ccc(Cl)cc2)S(=O)(=O)c2cccc3nonc23)cc1,inactive: 125%
7,CCOc1cc(CNC(=O)CN2CCSc3ccccc32)cc(OCC)c1OCC,inactive: 87%
8,COc1cccc(NC(=O)Cn2c(=O)n(Cc3ccccc3)c(=O)c3ccccc32)c1,inactive: 108%
9,CN(C)c1ccc(CNC(=O)Cn2c(=O)oc3cc(S(=O)(=O)N4CCCCCC4)ccc32)cc1,inactive: 83%
10,Cc1ccc(NC(=O)Cc2coc3ccc(C(C)C)cc23)cc1Cl,inactive: 53%
11,COc1ccc(-c2nc3c(c(SCC(=O)N4CCCCC4)n2)Cc2cc(Cl)ccc2O3)cc1,inactive: 90%
12,Cc1[nH]c(=O)[nH]c(=O)c1/C=N\NC(=O)c1cc2ccccc2o1,inactive: 111%
13,CCOC(=O)c1c(NC(=O)c2ccc(OC)cc2)sc2c1CCCCC2,active: 7%
14,O=C(COc1ccccc1)Nc1ccc2nc(SCC(=O)N3CCOCC3)sc2c1,inactive: 76%
15,CCCS(=O)(=O)c1nc(S(=O)(=O)c2ccc(C)cc2)c(NC)s1,inactive: 87%
16,COc1ccc(-n2c(=O)[nH]c3cc(C(=O)NCCc4ccccc4)ccc3c2=O)cc1OC,inactive: 76%
17,Cc1ccc(-n2ncc(C(=O)N3CCCCC3)c2C2CCN(C(=O)OC(C)(C)C)CC2)c(C)c1,inactive: 75%
18,COc1cc(OC)c(NS(=O)(=O)c2ccc3oc(=O)c4ncn(C)c4c3c2)cc1Cl,inactive: 133%
19,Cc1ccc(CSc2nnc3[nH]c(=O)cc(-c4ccccc4)n23)cc1,inactive: 74%
20,O=C(CSc1nnc(-c2ccc(F)cc2)o1)N1CCCc2ccccc21,inactive: 66%
21,COc1ccccc1NC(=O)N1CCN(Cc2ccccc2)CC1,inactive: 102%
22,COC(=O)c1sccc1S(=O)(=O)N(CC(=O)NCc1ccc(C)cc1)c1ccc(C)cc1,inactive: 75%
23,COc1ccc(-n2c(SCC(=O)NCc3ccc(C)cc3)nc3n[nH]c(C)c3c2=N)cc1,inactive: 76%

row,SMILES,survival
1,COc1ccc(OC)c(N=c2oc3cc(O)ccc3cc2C(=O)Nc2ccccn2)c1,inactive: 120%
2,Fc1ccc(-c2nc(Nc3cccc(C(F)(F)F)c3)nc3c2COc2ccccc2-3)cc1,inactive: 56%
3,O=C(CCC1N=C2c3ccccc3N=C(SCc3ccc(Cl)cc3)N2C1=O)N1CCN(c2ccccc2)CC1 (stereo not given),inactive: 99%
4,COc1ccc(N2CCN(CCCNC(=O)Nc3ccccc3)CC2)cc1,inactive: 73%
5,COc1ccc(C2C=C(c3ccc(Cl)c(Cl)c3)Nc3ncnn32)cc1 (stereo not given),inactive: 26%
6,C/C(=N/NC(=O)CC1N=C(Cc2ccccc2)NNC1=O)c1ccco1 (stereo not given),inactive: 86%
7,Cc1ccc(S(=O)(=O)N2C(=O)CCC2C(=O)NCc2ccco2)cc1 (stereo not given),inactive: 105%
8,O=C(Nc1ccccc1)C(Cc1cccs1)c1nn[nH]n1 (stereo not given),inactive: 103%
9,CC(C)(C)c1ccc(OCc2nnc(-c3ccccc3)o2)cc1,inactive: 84%
10,CCOC(=O)C1=C(CN2CCN(c3cccc(Cl)c3)CC2)NC(=O)NC1c1ccc(Cl)cc1 (stereo not given),inactive: 85%
11,CCn1cc(C(=O)NCc2ccc(Cl)cc2)c(=O)c2cc(S(=O)(=O)N(C)C3CCCCC3)ccc21,inactive: 81%
12,COc1ccc(S(=O)(=O)NCCSc2nnnn2-c2ccccc2)cc1,inactive: 91%
13,COc1ccc(NC(=O)CCCn2nc(C)c3sc4ccccc4c3c2=O)cc1,inactive: 90%
14,CCN1CCN(C(=O)c2cccs2)CC1,inactive: 101%
15,Cc1cc(-n2c(C)nc3ccccc3c2=O)ccc1NC(=O)C(F)(F)F,inactive: 69%
16,Fc1ccc(C2=CC(c3ccc(F)cc3)n3c(nc4ccccc43)N2)cc1 (stereo not given),inactive: 112%
17,O=C(Cn1ncc2c3ccccc3n(Cc3ccc(F)cc3)c2c1=O)NCc1cccs1,inactive: 85%
18,CC(CNC(=O)c1ccc2nc(Cc3ccccc3)oc2c1)c1ccccc1 (stereo not given),inactive: 79%
19,COc1ccc(-c2nc(CSCC(=O)N3CCN(c4ccc(F)cc4)CC3)c(C)o2)cc1,inactive: 71%
20,O=C1Nc2ccccc2C(=O)N2CCCC12 (stereo not given),inactive: 110%
21,CCN(Cc1ccccc1)S(=O)(=O)c1ccc(-c2coc(C)n2)cc1,inactive: 125%
22,CC1CCCN(S(=O)(=O)c2ccc3c(c2)CCN3C(=O)CCC(=O)O)C1 (stereo not given),inactive: 80%
23,CCC(=O)N(Cc1cccnc1)Cc1cc2cc(OC)ccc2[nH]c1=O,inactive: 104%

row,SMILES,survival
1,CCC(C)Nc1ncnc2c1cnn2-c1ccc(F)cc1 (stereo not given),inactive: 71%
2,Cc1cccc(Cc2c(C)nc3c(-c4ccccc4)c(C)[nH]n3c2=O)c1,active: 4%
3,O=C(NCCc1ccncc1)Nc1c[nH]c2ccccc2c1=O,inactive: 99%
4,COc1ccc(NS(=O)(=O)c2ccc3nc(-c4ccccc4)[nH]c3c2)cc1,inactive: 81%
5,Cc1cc(C(=O)Nc2ccc(-n3c(C)nc4ccccc4c3=O)cc2)ccc1[N+](=O)[O-],inactive: 129%
6,CCc1ccc(-n2c(=O)c3c4c(sc3n(CC(=O)N3CCC(C)CC3)c2=O)CCC4)cc1,inactive: 81%
7,CCc1nonc1NC(=O)c1oc2ccc(Br)cc2c1C,inactive: 85%
8,Cc1ccc(Cl)cc1NC(=O)c1oc2ccc(S(=O)(=O)N3CCCCC3)cc2c1C,inactive: 91%
9,COC(=O)CN(C#N)c1nc(SC)nc(N(C)C)n1,inactive: 101%
10,Cc1ccc(NC(=O)C2CCCN(S(=O)(=O)c3cccc4cccnc34)C2)cc1 (stereo not given),inactive: 119%
11,Cc1ccc(S(=O)(=O)c2cn(Cc3cccc(C)c3)c3cc4c(cc3c2=O)OCO4)cc1,inactive: 144%
12,Cc1ccc(Cl)cc1NC(=O)c1oc2ccc(S(=O)(=O)N(C)C3CCCCC3)cc2c1C,inactive: 85%
13,Cc1nn(C(C)C(=O)N2CCN(c3ccc(Cl)cc3)CC2)c(=O)c2cc3occc3n12 (stereo not given),inactive: 81%
14,COc1ccc(CNCCNC(=O)c2cccs2)c(OC)c1OC,inactive: 108%
15,Cc1cccc(NC(=S)N2CCC(NC(=O)c3ccco3)CC2)c1,inactive: 97%
16,CC(=O)CSc1nnc2cc(C)c3cc(C)cc(C)c3n12,inactive: 116%
17,CSc1ccc(/C=C/c2nc3ccccc3n2S(=O)(=O)c2cccc(Cl)c2)cc1,inactive: 66%
18,O=C1CSC(=S)N1Nc1ccccc1,inactive: 106%
19,CCC(CC)C(=O)Nc1nnc(SCc2cc(=O)n3cccc(C)c3n2)s1,inactive: 87%
20,CCOc1ccc(CN(C(=O)c2cc(=O)c3cc(C)cc(C)c3o2)C2CCS(=O)(=O)C2)cc1 (stereo not given),inactive: 84%
21,COc1cc(NC(=O)CCc2c(C)nc3cc(-c4ccccc4)nn3c2C)cc(OC)c1OC,inactive: 79%
22,Cc1ccc2c(c1)c(=O)c(C(=O)c1ccc3c(c1)OCO3)cn2Cc1ccc(Cl)cc1,inactive: 69%
23,CCOc1ccc(CN2C(=O)c3ccccc3Sc3ccc(C(=O)O)cc32)cc1,inactive: 68%

row,SMILES,survival
1,O=C(NCCc1ccc(Cl)cc1)C(=O)NCC(c1ccco1)S(=O)(=O)c1ccc(Cl)cc1 (stereo not given),inactive: 78%
2,CCCN1C(=O)C2(c3ccccc31)c1c(oc3ccc(F)cc3c1=O)C(=O)N2CCCOC(C)C (stereo not given),inactive: 102%
3,Cc1oc2ncnc(N3CCCCC3)c2c1C(=O)N1CCN(c2cccc(Cl)c2)CC1,inactive: 87%
4,Oc1ccc(CNc2ccccc2Cl)c2cccnc12,inactive: 93%
5,c1coc(-c2nc3n(n2)C2(CCCCC2)[C@@H]2CCCC[C@@H]2N3)c1,inactive: 99%
6,CC(C)(C)n1nnnc1C(c1cccs1)N1CCCc2ccccc21 (stereo not given),inactive: 120%
7,CN(C(=O)CSc1nnc(-c2ccccc2F)o1)C1CCCCC1,inactive: 76%
8,Cc1cccc(C(=O)Nc2nnc(S(=O)(=O)N(C)c3ccccc3C)s2)c1,inactive: 37%
9,Cc1ccc(-n2c(-c3ccco3)nc3c(cnn3-c3ccccc3Cl)c2=O)cc1,inactive: 131%
10,COc1ccc(CNC(=O)CCCn2nc(C)c3c(C)n(-c4ccccc4)nc3c2=O)cc1,inactive: 70%
11,COc1ccc(OC)c(NS(=O)(=O)c2ccc(-c3cc(C)no3)s2)c1,inactive: 72%
12,CCN(C(=O)CSc1nc(-c2ccc(C(C)C)cc2)no1)c1cccc(C)c1,inactive: 72%
13,CCc1ccc(CN2CCc3nc(N4CCN(CC)CC4)ncc3C2)cc1,inactive: 81%
14,CN(C)c1ccc(CNC(=O)CCn2cccn2)cc1,inactive: 66%
15,CCn1cc2nc(SCc3cccc(Cl)c3)n(Cc3ccc(C)cc3)c(=O)c2n1,inactive: 53%
16,Cc1ccc(Cl)cc1Nc1nn2c(=O)c3ccc(C(=O)N4CCCC(C)C4)cc3nc2s1 (stereo not given),inactive: 69%
17,CC(C)c1cnc2c(c1SCC(=O)Nc1cccc(F)c1)c(=O)n(C)c(=O)n2C,inactive: 71%
18,O=C(c1cc2ccccc2oc1=O)N(Cc1ccc(F)cc1)Cc1ccco1,inactive: 105%
19,COc1ccc(CCNS(=O)(=O)c2cc(-c3cc(C)no3)ccc2C)cc1OC,inactive: 69%
20,O=C(Nc1cccc(F)c1)C1CCN(S(=O)(=O)c2cccc3nsnc23)CC1,inactive: 82%
21,Cc1cc(C)cc(OC(C)C(=O)Nc2c(C(=O)c3ccccc3)oc3ccccc23)c1 (stereo not given),active: -1%
